The values that follow come from PubChem BioAssay AID1159614 (National Center for Advancing Translational Sciences (NCATS), 2016).

The campaign covered roughly 45,000 compounds. About 65 (0.1%) were called active. Calls come from the whole dose curve; as a rule, active = well fitted activation curve with a large enough effect; inconclusive = small, poorly fitted or top-dose-only effect; inactive = no such curve, though single readings can be large or run the other way. The list shows a part of the results.

Sequence of UniProt P54803 (P54803 whole entry, looked up): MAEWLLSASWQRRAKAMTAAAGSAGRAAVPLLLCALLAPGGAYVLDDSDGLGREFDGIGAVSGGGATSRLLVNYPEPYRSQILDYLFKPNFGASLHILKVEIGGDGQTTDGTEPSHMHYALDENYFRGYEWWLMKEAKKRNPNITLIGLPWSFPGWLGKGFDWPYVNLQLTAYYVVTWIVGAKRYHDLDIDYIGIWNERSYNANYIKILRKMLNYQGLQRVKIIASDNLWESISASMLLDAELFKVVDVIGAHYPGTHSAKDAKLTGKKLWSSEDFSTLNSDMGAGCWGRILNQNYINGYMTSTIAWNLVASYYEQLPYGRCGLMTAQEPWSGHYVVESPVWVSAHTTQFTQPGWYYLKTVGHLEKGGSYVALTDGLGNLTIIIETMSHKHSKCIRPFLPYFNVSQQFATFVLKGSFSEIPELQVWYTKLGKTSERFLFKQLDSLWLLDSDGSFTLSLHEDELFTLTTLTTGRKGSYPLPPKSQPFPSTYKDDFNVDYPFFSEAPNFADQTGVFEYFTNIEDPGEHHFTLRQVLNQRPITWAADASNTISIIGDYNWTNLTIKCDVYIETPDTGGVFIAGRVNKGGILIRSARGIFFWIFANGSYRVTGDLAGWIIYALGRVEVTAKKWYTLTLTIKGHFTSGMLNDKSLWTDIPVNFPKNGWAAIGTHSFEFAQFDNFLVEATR

In the test the target is Galactocerebrosidase (Homo sapiens) (UniProt P54803). Briefly: A Novel Cell-Based Assay to Identify Small Molecules for B -Galactocerebrosidase. Note: 0% is about no effect; nearly all actives have a fitted effect of over 65% in size. The note with it: 145M-Twi-hGALC-G270D cells, HMU-beta-Gal fluorescence, 48 h; series mostly up to 57.5 µM; activation: at the top concentration. A digest of the protocol:
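qHTS, 1536-well; 145M-Twi-hGALC-G270D cells (WT line also made) in DMEM/F12 + 10% FBS; compound incubation on live cells; HMU-β-gal 0.1 mM final, pH 5.2, NaTC; carbonate stop; fluorescence increase = enhanced residual activity.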
On to `Cc1ccc(Cl)cc1NC(=O)c1cc(S(=O)(=O)N2CCCCCC2)cn1C`, for which the “activation” value is inactive: -1.73%.

As to `Cc1ccc(C)c(N2CCN(S(=O)(=O)c3cc(C(=O)Nc4cc(Cl)cc(Cl)c4)ccc3F)CC2)c1`, the “activation” value was inactive: -22.5%.

For the compound `COc1cc(C2CC(=O)Nc3c2c(C)nn3-c2nncc(-c3ccccc3)n2)cc(OC)c1OC` (centres undefined), the “activation” value was inactive: -13%.

For the compound `CCOc1ccc(C(=O)Nc2cccc(-c3nc4cccnc4s3)c2C)cc1OCC`, the “activation” value was inactive: -12.2%.

For the compound `COc1ccc(Nc2ncc3c(n2)CCN(Cc2ccc(Br)s2)C3)c(OC)c1`, the “activation” value is inactive: -6.29%.

Take `COc1ccc(/C=C/c2nc(C#N)c(N3CCC(C)CC3)o2)cc1OC`: the “activation” value is inactive: 2.51%.

As to `Cc1ccc2nc3c(cc(C#N)c(=O)n3-c3nnc(SCc4ccccc4Cl)s3)c(=O)n2c1`, the “activation” value was inactive: -6.73%.

With `O=C(OCc1cc(=O)n2nc(-c3cccs3)sc2n1)c1ccc(F)cc1`, the “activation” value is inactive: 0.638%.

`CCN(c1ccccc1)c1nnc(NC(=O)Nc2ccc(C)cc2)s1`: the “activation” value was inactive: -16.4%.

For the compound `CC(=O)N1N=C(c2ccc(C)cc2)CC1c1cn(-c2ccccc2)nc1-c1cccs1` (centres undefined), the “activation” value is inactive: 6.84%.

Take `CSc1ccc(CCNC(=O)c2ccc(-n3c(C)cc4c3CCCC4)cc2)cc1`: the “activation” value is inactive: -15.2%.

For the compound `CCC1CN(C(=O)N2CCC(C(=O)O)CC2)c2cc(C)ccc2O1` (centres undefined), the “activation” value is inactive: -6.69%.

With `CCCNCC(O)COc1ccccc1C(=O)CCc1ccccc1` (centres undefined), the “activation” value was inactive: -15.8%.

`Cc1ccc(CCNC(=O)c2ccc(CSCc3ccccc3C)o2)cc1`: the “activation” value is inactive: 3.99%.

As for `CCN(Cc1ccccc1)C(=O)C1CCN(S(=O)(=O)c2c(C)noc2/C=C/c2ccc(C)cc2)CC1`, the “activation” value is inactive: -10.2%.

As to `COc1ccc(Nc2cc(C)c3cc(NC(=O)Cc4c(F)cccc4Cl)ccc3n2)cc1`, the “activation” value was inactive: -7.41%.

For the compound `Cc1ccc2nc(-c3ccc(NC(=O)COc4ccc(Cl)c(C)c4)cc3)sc2c1`, the “activation” value was inactive: -0.713%.

For `CCOC(=O)c1ccc(NC(=O)C2CCN(S(=O)(=O)c3ccc(C)cc3)CC2)cc1`, the “activation” value was inactive: -19.7%.

For `COc1ccccc1CNC(=O)CS(=O)Cc1nc(-c2ccc(OC)c(OC)c2)oc1C` (centres undefined), the “activation” value was inactive: -12.6%.

As to `CC(=O)c1nn(-c2ccc(OC(F)(F)F)cc2)nc1Nc1ccc(C)cc1`, the “activation” value was inactive: -1.64%.

With `COc1ccccc1CNC(=O)c1sc2nc3n(c(=O)c2c1C)CCC3`, the “activation” value is inactive: -22.1%.

For `CCOc1ccc(CNS(=O)(=O)c2ccc(-c3cc(C(F)(F)F)on3)s2)cc1`, the “activation” value is inactive: -10.5%.

For `CCOc1ccc(-c2cc(C(=O)NCc3ccc(C)cc3)c3ccccc3n2)cc1`, the “activation” value is inactive: -6.57%.

For `CCCNc1ccc(-c2nc(-c3ccncc3)no2)cc1[N+](=O)[O-]`, the “activation” value is inactive: -0.934%.

`CCOc1ccc(Cl)cc1C1CC(=O)Nc2cc(OC)c(OC)c(OC)c21` (centres undefined): the “activation” value is inactive: -0.755%.

In the case of `Cc1cccc(N2CCN(C(=O)c3ccc(NC(=O)c4nsc5ccccc45)cc3)CC2C)c1` (centres undefined), the “activation” value is inactive: 1.12%.

As for `CCn1c(SCc2ccccc2F)nc(=O)c2c(C(=O)OC)cc(C3CC3)nc21`, the “activation” value is inactive: -24.1%.

Consider `CCCC(CCC)C(=O)Nc1cccc(-c2cn3cccnc3n2)c1`, for which the “activation” value is inactive: -22.8%.

Take `Cc1ccc(C)c(N2CCN(C(=O)c3ccc4[nH]c(C)c(C)c4c3)CC2)c1`: the “activation” value was inactive: -5.22%.

Regarding `NC(=O)C(c1ccccc1)(c1ccccc1)[C@@H]1CCN(CCc2ccc3c(c2)CCO3)C1`, the “activation” value is inactive: -4.29%.

As to `CCOC(=O)C1CCCN(C(=O)Cn2ncc3c([nH]c4ccc(C)cc43)c2=O)C1` (centres undefined), the “activation” value was inactive: -8.78%.

Consider `COc1ccc(CNC(=O)c2c(Nc3ccccc3C)sc(C(=O)c3ccccc3)c2N)cc1`, for which the “activation” value was inactive: -12.2%.

On to `COc1ccccc1CNC(=O)CN1C(=O)CCc2cc(S(=O)(=O)N3CCOCC3)ccc21`, for which the “activation” value is inactive: -28.3%.

`O=C(Nc1ccc2nc(SCC(=O)N3CCCC3)sc2c1)c1ccccc1F`: the “activation” value is inactive: -11.3%.

With `COc1cc2[nH]c(=O)n(CCCC(=O)NCc3ccccc3)c(=O)c2cc1OC`, the “activation” value was inactive: -6.13%.

Take `CCc1ccc(NC(=O)CCCc2nc(-c3ccco3)no2)cc1`: the “activation” value is inactive: -44.4%.

As to `COC(=O)c1c(NC(=O)CCCOc2ccccc2C)sc2c1CCC(C)C2` (centres undefined), the “activation” value is inactive: -22.4%.

Consider `Cc1ccc(OCc2nc(-c3ccc(C(=O)NCCc4ccc(S(N)(=O)=O)cc4)cc3)oc2C)cc1`, for which the “activation” value was inactive: -9.21%.

For `CCOc1ccc(NC(=O)CNS(=O)(=O)c2ccc(Br)s2)cc1`, the “activation” value is inactive: -43.8%.

In the case of `CCOC(=O)c1cccc(N)c1`, the “activation” value is inactive: -13.7%.

Consider `CCOC(=O)c1sc2ccccc2c1S(=O)(=O)N1CCN(c2ccccc2)CC1`, for which the “activation” value was inactive: 6.82%.

As for `Cc1ccc(NC(=O)CN2C(=O)CCc3cc(S(=O)(=O)N4CCCCC4)ccc32)cc1N(C)C`, the “activation” value is inactive: -4.87%.

Consider `CC1CN(C(=O)N2CCC(C(=O)NCc3ccco3)CC2)c2cc(Cl)ccc2O1` (centres undefined), for which the “activation” value is inactive: -15.2%.

For `COc1ccc(NC(=O)c2cc(-c3ccccc3O)no2)cc1`, the “activation” value was inactive: 0.682%.

As to `CCCCN(CCCC)CCNC(=O)c1cc(=O)[nH]c2ccc(S(=O)(=O)N3CCCCCC3)cc12`, the “activation” value was inactive: -0.389%.

In the case of `Cc1ccc(CNC(=O)C2CCCN(S(=O)(=O)c3ccc4c(ccn4C)c3)C2)cc1` (centres undefined), the “activation” value is inactive: -12.2%.

In the case of `CN1CCN(C(=O)Nc2cccc(Cl)c2)c2cccnc21`, the “activation” value was inactive: -13.8%.

In the case of `CC(C)c1ccc(NC(=O)CSc2nc(=O)n(Cc3cccnc3)c3c2CCC3)cc1`, the “activation” value is inactive: -1.3%.

In the case of `Cc1ccc(Cl)cc1NC(=O)CSc1nc(C)c(C)c(C)c1C#N`, the “activation” value is inactive: -10.1%.
